Screen size: about 350,000 compounds; about 2,100 (0.6%) were called active. Inconclusive results, whose numbers are uncertain, are shown with a selection of clear calls.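 Rule for the calls: active = activity change of -60% or lower, but not beyond a set lower limit; inconclusive = change between -60% and -40%, or beyond the set limit; inactive = change above -40%.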
target: Relaxin receptor 1 (Homo sapiens) (UniProt Q9HBX9); experiment: qHTS Assay for Antagonists of the Relaxin Receptor RXFP1; conditions: HEK293-RXFP1, relaxin-stimulated cAMP HTRF, 30 min; at 57.5 µM; stronger effect = lower value
UniProt Q9HBX9, sequence (Q9HBX9 whole entry, looked up): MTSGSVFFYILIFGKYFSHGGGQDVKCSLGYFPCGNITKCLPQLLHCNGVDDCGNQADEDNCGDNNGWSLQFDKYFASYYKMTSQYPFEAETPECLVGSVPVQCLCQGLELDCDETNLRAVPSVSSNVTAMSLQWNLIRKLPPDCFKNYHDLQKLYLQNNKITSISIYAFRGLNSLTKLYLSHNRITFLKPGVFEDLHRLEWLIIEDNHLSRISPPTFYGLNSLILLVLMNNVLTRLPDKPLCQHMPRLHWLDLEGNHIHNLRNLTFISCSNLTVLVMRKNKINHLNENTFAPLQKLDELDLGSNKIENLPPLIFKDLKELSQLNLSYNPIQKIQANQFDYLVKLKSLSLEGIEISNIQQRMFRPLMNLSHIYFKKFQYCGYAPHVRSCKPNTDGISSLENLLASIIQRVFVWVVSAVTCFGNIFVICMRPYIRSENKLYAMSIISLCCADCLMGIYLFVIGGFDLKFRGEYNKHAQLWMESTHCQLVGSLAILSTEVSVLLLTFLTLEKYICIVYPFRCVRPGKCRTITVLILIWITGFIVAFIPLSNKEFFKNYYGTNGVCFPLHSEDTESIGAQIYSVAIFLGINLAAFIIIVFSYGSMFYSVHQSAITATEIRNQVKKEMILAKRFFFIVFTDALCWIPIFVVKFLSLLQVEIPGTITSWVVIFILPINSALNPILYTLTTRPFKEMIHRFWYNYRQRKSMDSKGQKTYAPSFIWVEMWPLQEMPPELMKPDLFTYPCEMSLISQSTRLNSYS
% is set by controls: 0 for no effect and ±100 for the full control effect.

| Compound | activity change, negative = inhibition |
| --- | --- |
| CCC(CC)c1nnc(NC(=O)COc2ccc3c(c2)OCO3)s1 | inactive: -24.3% |
| CCCc1cc(C(=O)N2CCCC(C(=O)c3cc(C)c(OC)c(C)c3)C2)n(C)n1 (stereo not drawn) | inconclusive: -45.7% |
| COc1cccc(NC(=O)CSc2nnc(-c3cccnc3)o2)c1 | active: -83.2% |
| O=c1[nH]n(Cc2ccccc2)c2ccccc12 | inconclusive: -48.8% |
| Cc1ccc(Nc2nc(-c3ccccc3)cs2)nc1 | inconclusive: -47.8% |
| CS(=O)(=O)c1ncc(Cl)c(C(=O)Nc2ccc(OC(F)F)cc2)n1 | active: -82.4% |
| COc1ccccc1N1CCN(S(=O)(=O)CCNC(=O)COc2ccc(C(C)C)cc2)CC1 | inconclusive: -41.8% |
| COc1ccc(-c2nsc(NC(=O)C(C)Oc3ccc(Cl)c(C)c3)n2)cc1 (stereo not drawn) | inconclusive: -50.1% |
| O=c1[nH]c2ccc(Cl)cc2c(-c2ccccc2)c1N1CCN(CCO)CC1 | inconclusive: -41.9% |
| O=C(/C=C/c1ccco1)NC(=S)Nc1cccc(-c2nc3ccccc3o2)c1 | inconclusive: -45.8% |
| C=CCn1c(=O)/c(=C/c2ccc(Cl)cc2)s/c1=C(\C#N)c1nnc2n1CCCCC2 | inconclusive: -57.7% |
| O=C(c1ccco1)N1CCN(c2c(-c3ccccc3)c3cc(Cl)ccc3[nH]c2=O)CC1 | inconclusive: -53.1% |
| Cc1ccc(-n2nc(CO)c(C(=O)NCC(c3ccccc3)c3ccccc3)n2)cc1 | inactive: -12.3% |
| CC(C)(C)SCCNC(=O)CN(c1ccccc1)S(=O)(=O)c1ccc(F)cc1 | inactive: -10.5% |
| COc1ccc(NC(=O)CSc2nc(O)cc(=O)n2-c2ccc(OC)cc2)cc1 | active: -78.1% |
| FC(F)(F)c1cccc(CNC(=S)Nc2ccccc2)c1 | inconclusive: -46.2% |
| CC1(C)CCSC(/C=C/c2ccccc2)=N1 | inconclusive: -47.9% |
| CC(=O)CCc1oc2ccc(C)cc2c1Cc1ccccc1 | inconclusive: -48.2% |
| O=S(=O)(Nc1cccc(-c2ccc(N3CCCCCC3)nn2)c1)c1ccccc1F | inconclusive: -40.8% |
| CCCN1C(=O)c2[nH]nc(-c3ccccc3O)c2C1c1cccc(OCc2ccccc2)c1 (stereo not drawn) | inconclusive: -54.7% |
| CCOC(=O)c1nc2sc3c(c2c(=O)n1C(C)C(=O)OCC)CCCC3 (stereo not drawn) | active: -60.9% |
| Nc1nc(Br)c2ccccc2c1-c1ccccc1 | inconclusive: -52.2% |

| Compound | activity change, negative = inhibition |
| --- | --- |
| COc1ccc(NC(=O)C2CCCN(c3cnccn3)C2)cc1 (stereo not drawn) | inactive: -1.58% |
| Oc1ccc(C2Nc3cccc4cccc(c34)N2)cc1 | inconclusive: -47.8% |
| CC(C)(C)c1ccc(-c2nc(-c3ccncc3)no2)cc1 | inconclusive: -43.2% |
| COc1ccc(-n2nnnc2C2CCN(S(=O)(=O)c3cccc(Cl)c3C)CC2)cc1 | inactive: -11.1% |
| O=C(NCCc1cccs1)c1ccc(Cl)c(Cl)c1 | inactive: -5.17% |
| c1ccc2c(-c3[nH]ncc3CNCCCn3ncc4ccccc43)cccc2c1 | inconclusive: -56.9% |
| O=c1oc2cc(O)ccc2c2ccccc12 | inactive: 30.7% |
| Cc1ccc(NC(=S)NNc2ccc(C(=O)O)cc2[N+](=O)[O-])cc1C | inconclusive: -43.9% |
| Cc1cccc(-n2c(SCC(=O)Nc3ccccc3Cl)nc3n[nH]c(C)c3c2=N)c1 | inconclusive: -48.3% |
| CC(=O)N1CCCc2cc(S(=O)(=O)NCc3ccc(N(C)C)cc3)ccc21 | inactive: -17% |
| CN=c1scc(-c2cccs2)n1/N=C/c1ccccc1O | inconclusive: -45.5% |
| CCOc1nc(NC2CCCC2)nc(N2CCC(C)CC2)n1 | inconclusive: -41.6% |
| O=c1c2ccccc2[nH]c(=S)n1CCCN1CCN(c2ccccc2)CC1 | inconclusive: -56.4% |
| CC(=O)Nc1sc(N/N=C/c2ccc(N(C)C)cc2)nc1-c1ccc(C)cc1 | inactive: 5.15% |
| COc1ccc(NC(=O)c2c(NCc3cccc(OC)c3)sc3c2CCC3)cc1 | inconclusive: -45% |
| Cc1c2cnn(CC(=O)NCCc3ccccc3)c(=O)c2c(C)n1Cc1ccccc1Cl | inconclusive: -51.9% |
| O=C(OCC(=O)N1CCc2ccccc2C1)c1cccs1 | inconclusive: -49.2% |
| CC(C)N=C1CCCC1C(=S)SSC(=S)C1CCCC1=NC(C)C (stereo not drawn) | active: -72.7% |
| CCN(CC)CCNC(=O)CCCCn1c(=S)[nH]c2c([nH]c3ccc(OC)cc32)c1=O | inconclusive: -57.4% |
| COc1ccc2[nH]c(=O)cc(C(=O)O)c2c1 | inconclusive: -40.9% |
| O=C(Cc1ccc([N+](=O)[O-])cc1)NCc1ccncc1 | inconclusive: -44.5% |
| Cc1c(N=Cc2cc(Br)cc(Br)c2O)cccc1C(=O)O | inconclusive: -44.6% |

| Compound | activity change, negative = inhibition |
| --- | --- |
| Cc1cc2c(=Cc3ccc(N(C)C)cc3)c3ccccc3n2[n+]1C | inconclusive: -54.5% |
| Cc1ccc(C)c(NC(=S)NCC(c2ccccc2)N(C)C)c1 (stereo not drawn) | inactive: 12.2% |
| O=[N+]([O-])c1c(NCCCO)cc(Sc2nc3ccccc3s2)c2nonc12 | active: -73.2% |
| Clc1cccc(Cl)c1C1Nc2cccc3cccc(c23)N1 | inconclusive: -42.3% |
| O=C(c1ccc(N2CCCCC2)c([N+](=O)[O-])c1)N1CCN(c2ccccn2)CC1 | inactive: 0.123% |
| COc1ccccc1C(=O)CSc1ccccn1 | inactive: -8.93% |
| CCOC(=O)C(=Cc1ccc(Br)cc1)C(=O)OCC | active: -96.1% |
| COc1ccc(C(C)C)cc1S(=O)(=O)NCCCn1ccnc1 | active: -63.3% |
| O=C(Cn1cc(/C=C\[N+](=O)[O-])c2ccccc21)Nc1ccccc1 | active: -105% |
| Cc1ccc(OCc2ccc(C(=O)NN)o2)c([N+](=O)[O-])c1 | inactive: -3.09% |
| CCOC(=O)N1CCN(C(=O)c2ccc3c(=O)n(-c4ccc(OC)cc4)c(=S)[nH]c3c2)CC1 | inactive: 3.32% |
| CCCN(c1ccccc1F)S(=O)(=O)c1cc(-c2cc(C)no2)ccc1C | inconclusive: -40.5% |
| COc1ccccc1N1CCN(C(=O)c2cc3cc(F)ccc3[nH]2)CC1 | inconclusive: -45.3% |
| C=CCN1C(c2ccc(Br)cc2)=CS/C1=C(/C#N)c1nnc(N2CCOCC2)n1-c1ccccc1 | inconclusive: -42% |
| Cc1cc(C)n(-c2cc(C(C)(C)C)nc3c(-c4ccccc4)cnn23)n1 | active: -80% |
| Nc1nonc1-c1nc2ccccc2n1CC(=O)Nc1cccc(C(F)(F)F)c1 | inconclusive: -42.2% |
| CCCNC(=O)c1nnsc1S(=O)(=O)c1ccc(Cl)cc1 | active: -63.2% |
| Clc1ccccc1CNCCCSc1nnnn1-c1ccccc1 | inactive: 0.265% |
| O=C(NC(=S)Nc1nc(-c2ccccc2)cs1)c1ccco1 | active: -62.5% |
| Cc1cc(=O)[nH]c(SCC(=O)OCc2ccccc2)c1C#N | inconclusive: -42.2% |
| CCCC(=O)N1c2nc(-c3ccco3)nn2C2(CCCCC2)[C@@H]2CCCC[C@@H]21 | active: -65.7% |
| O=C(NNc1c(Cl)cccc1Cl)c1cccs1 | inconclusive: -44.5% |

| Compound | activity change, negative = inhibition |
| --- | --- |
| O=C(c1ccc(Br)o1)N1N=C(c2ccc(Cl)cc2)CC1c1ccco1 (stereo not drawn) | inconclusive: -52.5% |
| CCOc1cccc(C(=O)N(Cc2ccc(C(C)C)cc2)C2CCS(=O)(=O)C2)c1 (stereo not drawn) | inactive: -25% |
| CC(C)(C)C1CCC(=NOC(=O)c2ccc(F)cc2)CC1 (stereo not drawn) | inconclusive: -43.5% |
| COc1ccc(-n2c(=S)[nH]c3cc(C(=O)NCc4ccccc4OC)ccc3c2=O)c(OC)c1 | inactive: -15.1% |
| O=C(c1cc2ccccc2cc1O)N1CCN(c2cccc(Cl)c2)CC1 | inconclusive: -42.4% |
| NC(=S)NN=C1c2cc(OCCN3CCOCC3)ccc2-c2ccc(OCCN3CCOCC3)cc21 | inactive: -0.907% |
| COc1ccc2c(c1)C(=O)N(CCc1ccc(S(=O)(=O)NC(=O)NC3CCCCC3)cc1)C(=O)C2(C)C | inconclusive: -56% |
| COc1ccc(C2c3ccc4ccccc4c3Oc3ncn(CCN(C)C)c(=N)c32)cc1 (stereo not drawn) | active: -108% |
| CCCCCNCC(=O)Nc1cccc(C(=O)Nc2cccc(C(F)(F)F)c2)c1 | inconclusive: -47.8% |
| CCc1nnc(NS(=O)(=O)c2ccc(NC(=S)NC(=O)/C=C/c3cccs3)cc2)s1 | inconclusive: -48.3% |
| COc1ccc(OCC(=O)N2CCc3c([nH]c4ccccc34)C2c2ccccn2)cc1 (stereo not drawn) | inconclusive: -41% |
| COc1ccc(S(=O)(=O)N2CCCCCC2)cc1C(=O)N(C)Cc1ccc(Cl)cc1Cl | inactive: 38.8% |
| O=C(O)CCC(=O)Nc1ccc(C(=O)OCC(=O)c2ccc(Cl)cc2Cl)cc1 | active: -66.9% |
| CCCCn1c(SCC(=O)c2ccc(OC)c(OC)c2)nc2cc(S(N)(=O)=O)ccc21 | active: -74.6% |
| CC(C)c1ccc(/C=N/n2nnnc2Nc2ccccc2)cc1 | inactive: -8.17% |
| S=c1[nH]nc(COc2cccc3ccccc23)n1Cc1ccccc1 | inconclusive: -51.8% |
| CC(C)S(=O)(=O)c1oc(-c2ccc(F)cc2)nc1S(=O)(=O)c1ccc(F)cc1 | active: -89.7% |
| Cc1cc(C(C#N)c2ccc(Cl)cc2)c(Cl)cc1NC(=O)c1cc(I)cc(I)c1O (stereo not drawn) | active: -112% |
| CC(C)(C)c1ccc(OCC(=O)N(Cc2ccco2)Cc2ccccc2F)cc1 | active: -94.9% |
| Cc1cc(C)cc(N(C(=O)c2snc(C(N)=O)c2N)C(C(=O)NCC2CCCO2)c2cccs2)c1 (stereo not drawn) | inconclusive: -57.2% |
| CCCC(=O)Oc1c(Sc2ccc(Cl)cc2)c(C)nn1-c1ccccc1 | inactive: -3.48% |
| COCCN=c1scc(-c2cccs2)n1/N=C/c1ccc(O)c(O)c1O | inconclusive: -47.6% |
